Test results from patent publication US20200123252A1 (LAMKAP BIO BETA, published 2020).

Columns and labels:
[1] = target: T1, human CEACAM5 on MKN-45 cells (human, UniProt P06731 35-685); assay: flow cytometry on MKN45 CEA+ cells (carry CEACAM5 and CD47)
T1 construct: Endogenous CEACAM5 on MKN-45 gastric adenocarcinoma cells, which also carry CD47 (and CEACAM6); also called CD66e; MKN45 CEA+ cancer cells
T1 sequence: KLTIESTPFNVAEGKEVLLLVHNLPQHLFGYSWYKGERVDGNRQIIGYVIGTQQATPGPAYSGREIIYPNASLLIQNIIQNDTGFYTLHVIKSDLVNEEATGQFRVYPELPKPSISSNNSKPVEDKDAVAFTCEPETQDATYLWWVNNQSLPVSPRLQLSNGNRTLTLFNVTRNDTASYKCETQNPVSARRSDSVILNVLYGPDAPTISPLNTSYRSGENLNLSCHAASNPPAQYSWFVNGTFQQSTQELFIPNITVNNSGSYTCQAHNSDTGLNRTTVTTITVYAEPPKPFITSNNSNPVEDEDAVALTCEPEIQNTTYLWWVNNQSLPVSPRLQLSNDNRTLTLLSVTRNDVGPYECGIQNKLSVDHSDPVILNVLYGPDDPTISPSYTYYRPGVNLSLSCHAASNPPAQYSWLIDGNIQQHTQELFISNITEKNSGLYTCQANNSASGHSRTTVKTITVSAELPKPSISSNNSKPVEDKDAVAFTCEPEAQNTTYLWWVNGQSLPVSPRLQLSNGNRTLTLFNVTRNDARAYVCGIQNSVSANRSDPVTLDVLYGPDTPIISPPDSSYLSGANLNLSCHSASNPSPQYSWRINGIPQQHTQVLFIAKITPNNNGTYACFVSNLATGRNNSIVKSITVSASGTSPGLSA

[2] = target: T2, human CD47 on MKN45 cells (human, UniProt Q08722); assay: inhibition of SIRPα-mouseFc binding to CD47 on MKN45 cells, imaging (CX5)
T2 construct: whole, on cells; also called IAP
From the text: The detection of bound SIRPα cell-based assay monitoring the interaction of soluble SIRPα with human CD47 expressed at the surface of MKN45 is used for the detection of the blocking activity. Dose-response experiments with bispecific antibodies according to the invention allow determination of an IC50 value.
MKN45 cancer cells, expressing both CD47 and CEACAM5, are stained with CFSE violet to allow the imaging system (CX5) to detect the cells. Briefly, 3,000 stained MKN45 cells per well are seeded in a 384 optical well plate (Costar) and incubated for 50 minutes with increased concentrations of bispecific antibodies of the invention (1.9 pM to 333 nM, in quadruplicates). Then, a fixe concentration of SIRPα-mouseFc premixed with anti-mouse IgG-Fc AF647 coupled antibody (Jackson Immunoresearch diluted 1:2000) is added at 50 ng/mL final. After an incubation of 3H30 plates are acquired with the imaging system (CX5, Thermofisher) and fluorescence signals emitted by the detected bound SIRPα is recorded by the software dedicated to the imaging system. Fluorescence signals are plotted according to the dose range tested and IC50 are calculated by the software (Prism, Graphpad).

B1: K2AC23 CEA×CD47 bispecific antibody (bispecific antibody, human IgG1, kappa, lambda)
heavy: [about 120 residues not given here][about 100 residues not given here][human IgG1 Fc not given here]
light 1: QSVLTQPPSASGTPGQRVTISCSGSSSNIGYGLVNWYQQLPGTAPKLLIYATNTRPSGVPDRFSGSKSGTSASLAISGLQSEDEADYYCAAWDFSYKVVFGGGTKLTVLGQPKAAPSVTLFPPSSEELQANKATLVCLISDFYPGAVTVAWKADSSPVKAGVETTTPSKQSNNKYAASSYLSLTPEQWKSHRSYSCQVTHEGSTVEKTVAPTECS
light 2: DIQMTQSPSSLSASVGDRVTITCRASQSISSYLNWYQQKPGKAPKLLIYAASSLQSGVPSRFSGSGSGTDFTLTISSLQPEDFATYYCQQMHPRAPKTFGQGTKVEIKRTVAAPSVFIFPPSDEQLKSGTASVVCLLNNFYPREAKVQWKVDNALQSGNSQESVTEQDSKDSTYSLSSTLTLSKADYEKHKVYACEVTHQGLSSPVTKSFNRGEC
notes: κλ body, human IgG1, common heavy chain; CEACAM5 arm light chain 1A8 (AC23)
EC50 [1]: 76.8 nM
IC50 [2]: 1.6 nM
